# Source: article PMC4336329 (PLoS ONE, 2015)
# About 2,200 (0.71%) of roughly 310,000 compounds showed an effect of 50% or more. The effect is printed as a negative number. Some of the results follow.
# Target: human ether-à-go-go-related gene (hERG) potassium channel (human, UniProt Q12809)
# Test: primary screen, population patch clamp on CHO cells stably expressing hERG
# human ether-à-go-go-related gene (hERG) potassium channel, sequence (Q12809 whole entry, looked up): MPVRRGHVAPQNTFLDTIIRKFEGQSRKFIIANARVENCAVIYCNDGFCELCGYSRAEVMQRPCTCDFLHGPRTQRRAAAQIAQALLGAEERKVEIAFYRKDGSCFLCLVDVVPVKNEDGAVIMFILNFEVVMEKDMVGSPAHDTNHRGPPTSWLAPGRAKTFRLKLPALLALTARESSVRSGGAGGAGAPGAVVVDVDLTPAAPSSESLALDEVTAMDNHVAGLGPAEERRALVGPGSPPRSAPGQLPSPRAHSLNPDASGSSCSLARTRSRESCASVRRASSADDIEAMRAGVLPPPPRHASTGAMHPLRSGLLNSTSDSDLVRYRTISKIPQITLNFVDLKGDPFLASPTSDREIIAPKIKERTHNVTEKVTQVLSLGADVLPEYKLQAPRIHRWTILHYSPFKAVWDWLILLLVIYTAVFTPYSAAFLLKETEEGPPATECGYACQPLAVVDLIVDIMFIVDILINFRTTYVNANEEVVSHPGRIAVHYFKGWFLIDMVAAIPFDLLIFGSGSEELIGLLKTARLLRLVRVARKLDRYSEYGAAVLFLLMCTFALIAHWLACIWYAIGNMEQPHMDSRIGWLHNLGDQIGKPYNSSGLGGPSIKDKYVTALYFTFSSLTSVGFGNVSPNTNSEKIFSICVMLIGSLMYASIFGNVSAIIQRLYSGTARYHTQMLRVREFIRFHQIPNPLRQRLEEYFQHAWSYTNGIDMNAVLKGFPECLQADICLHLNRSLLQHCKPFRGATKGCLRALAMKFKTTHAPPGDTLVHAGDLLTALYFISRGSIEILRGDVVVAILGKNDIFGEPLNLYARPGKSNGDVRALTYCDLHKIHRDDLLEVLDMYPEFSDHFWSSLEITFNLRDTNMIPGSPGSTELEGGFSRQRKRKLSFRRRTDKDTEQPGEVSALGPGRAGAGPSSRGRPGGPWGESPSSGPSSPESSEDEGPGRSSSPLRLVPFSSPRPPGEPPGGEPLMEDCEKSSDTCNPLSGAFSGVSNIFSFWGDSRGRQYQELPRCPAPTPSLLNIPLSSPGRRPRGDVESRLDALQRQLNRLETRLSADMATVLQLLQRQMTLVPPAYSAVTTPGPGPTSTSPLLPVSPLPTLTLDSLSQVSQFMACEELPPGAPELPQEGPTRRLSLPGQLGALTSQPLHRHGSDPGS
row,SMILES,"hERG current change (%, negative = inhibition) at 1uM"
1,CCN1C(C)=C(C)S/C1=C1\SC(=S)N(NC(C)=O)C1=O,-0.944%
2,CCOc1ccc(S(=O)(=O)N2CCC(C(=O)Nc3cccc(NC(C)=O)c3)CC2)cc1,15.7%
3,CCN(c1ccc(OC)cc1)S(=O)(=O)c1ccc(-c2cc(C)no2)s1,15.9%
4,O=C(Nc1ccc(Cl)cn1)c1ccc(Oc2ccccc2)cc1,8.4%
5,O=c1c2ccccc2c(=O)n2n1Cc1ccccc1C2,12%
6,COc1ccc2c(c1)NC1(O)c3ccccc3C(=O)C21O (stereo not shown),-17.7%
7,Cc1nc(Nc2ccccc2)sc1-c1ccccc1,6.8%
8,CCCCn1c(N)c(N(CCOC)C(=O)CSc2nnc(C)n2-c2ccc(OC)cc2)c(=O)[nH]c1=O,13.5%
9,O=C(CCNC(=O)C1CCN(S(=O)(=O)c2ccccc2)CC1)NC1CC1,14.4%
10,Cc1ccc(CNC(=O)Cn2ncn3cccc3c2=O)cc1,13%
11,Cc1ccc2nc(CSc3nnc4ccccn34)cc(=O)n2c1,13.6%
12,O=C(Nc1ccccc1Cl)c1sccc1-c1ccccc1,22.3%
13,COc1ccc(S(=O)(=O)N2CCN(C(=O)CNC(=O)c3ccc4c(c3)OCO4)CC2)cc1,29.2%
14,COc1ccc(CN2CC(=O)N(c3cc(Cl)ccc3C)C2=S)cc1OC,10%
15,O=C(C1CCN(S(=O)(=O)c2cnc[nH]2)CC1)N1CCN(c2ncccn2)CC1,-0.961%
16,CC(C)c1onc(C(=O)Nc2cccc(O)c2)c1[N+](=O)[O-],13.2%
17,Cc1ccc(C(OCC(O)CN2CCCCC2CO)c2ccccc2)cc1 (stereo not shown),-39.7%
18,O=C(NC1CCCC1)C(c1cccs1)N(Cc1ccco1)C(=O)c1csnn1 (stereo not shown),10.6%
19,CCN1CCSc2ccc(C(=O)NCc3ccccc3Br)cc21,11.8%
20,CN(C)S(=O)(=O)c1ccc(Oc2ccccc2)cc1,-15.7%
21,CC1(CCc2ccc(O)cc2)NC(=O)NC1=O (stereo not shown),14.8%
22,NC(=O)N/N=C/c1ccc2cccc(OCc3ccccc3)c2n1,2.38%

row,SMILES,"hERG current change (%, negative = inhibition) at 1uM"
1,NC(=O)c1ccsc1NC(=O)c1ccc(S(=O)(=O)N2CCCc3ccccc32)cc1,11.4%
2,CCN(CC)Cc1ccc(NC(=O)c2sc3cc(Cl)ccc3c2Cl)cc1,6.7%
3,CCC(CO)Nc1ncnc2onc(-c3ccc(F)cc3)c12 (stereo not shown),5.81%
4,CC1CC(Nc2ccccc2)=CC(=O)O1 (stereo not shown),20.1%
5,CC(=O)C1=C(C)NC(SCC(=O)c2ccc(-c3ccccc3)cc2)=C(C#N)C1c1cccnc1 (stereo not shown),12.8%
6,C=CCN1C=CC(=C/C=C(/C#N)C(=O)OCC)C=C1,6.6%
7,O=C(NCCc1c[nH]c2ccccc12)/C(=C/c1cccnc1)NC(=O)c1ccccc1,7.48%
8,O=C(NC1CCCC1)C(c1ccncc1)N(Cc1ccco1)C(=O)c1ccc(-c2ccccc2)[nH]1 (stereo not shown),21.8%
9,Cc1nc2ccc(S(=O)(=O)N(C)CC(=O)NCCc3ccccc3)cc2s1,8.02%
10,CC1(C)Oc2ccc(C(=O)N3CCOCC3)cc2N(CC(=O)Nc2ccccc2)C1=O,8.3%
11,COC(=O)c1cn(NC(=O)Cn2nc([N+](=O)[O-])c(Br)c2C)c(=O)c2ccccc12,27.7%
12,C=CCOc1ccc(CNC(C)(C)C)cc1OC.Cl,2.68%
13,COc1ccc(Oc2nc(OC)cc(OC)n2)cc1,9.71%
14,S=C(NCCC(c1ccccc1)c1ccccc1)Nc1cccc(Cl)c1,13.1%
15,N#CC1(NC(=O)COc2ccccc2[N+](=O)[O-])CCCCC1,10.3%
16,NS(=O)(=O)c1cccnc1Nc1cccc(Cl)c1Cl,4.89%
17,CC(C)c1nnc(NC(=O)CSc2ccccc2)s1,15.6%
18,Cc1ccccc1OC(=O)CCC(=O)OCCCC(F)(F)C(F)(F)F,21.1%
19,Cc1ccc(S(=O)(=O)N2C(=O)CCC2C(=O)Nn2cnnc2)cc1 (stereo not shown),3.37%
20,CCOc1ccc(C(=O)Nc2cccc3cccnc23)cc1,13.8%
21,O=C1CCC(=O)N1c1ccc(NCCc2ccccc2F)c([N+](=O)[O-])c1,5.64%
22,O=C(NCCN1CCCC1)c1ccc(Cn2c(=S)[nH]c3cc4c(cc3c2=O)OCO4)cc1,-7.26%

row,SMILES,"hERG current change (%, negative = inhibition) at 1uM"
1,Cc1ccc2nc(SCC(=O)NCc3ccc(F)cc3)[nH]c2c1,4.87%
2,COC(=O)c1ccc(CSc2nc3c(cnn3-c3ccccc3)c(=O)[nH]2)o1,11.2%
3,CC(C)c1cccc(C(C)C)c1NC(=O)COC(=O)c1ccc2c(c1)S(=O)(=O)c1ccccc1C2=O,8.38%
4,CCC(=O)N(Cc1cc2cc(OC)ccc2[nH]c1=O)c1cc(C)ccc1C,12.4%
5,CCCC12CN3CC(CCC)(CN(C1)C3c1ccccn1)C2=O (stereo not shown),1.71%
6,COc1ccc(-n2c(=S)[nH]c3cc(C(=O)Nc4ccc(C)c(F)c4)ccc3c2=O)c(OC)c1,13.9%
7,O=C(C1CCN(S(=O)(=O)c2cccs2)CC1)N1CCCCC1,5.25%
8,Cc1nc2cc(S(=O)(=O)N(C)C)ccc2n1-c1ccccc1,2.54%
9,CCN(CC)CCn1c2c(c(SCC(=O)NCc3ccccc3)nc1=O)CCC2,-10.6%
10,Cc1cccc(C)c1NC(=O)CNC(=O)C1CCCC1,-7.66%
11,COc1ccc(C2/C(=C(/O)c3ccccc3)C(=O)C(=O)N2c2ccccn2)c(OC)c1 (stereo not shown),3.49%
12,O=C(CCCC(=O)NCc1ccccc1)NCc1ccccc1,5.43%
13,Cc1ccc(CN2CCC(Oc3cccc(C(=O)N(C)CCN(C)C)c3)CC2)cc1C,13.5%
14,CC1(N2CCCCC2)C(=O)c2ccccc2C1=O,16.4%
15,Cc1cc(N2CCOCC2)nc2ccc(NC(=S)N3CCN(Cc4ccccc4)CC3)cc12,-11.9%
16,COc1ccc(-c2ocnc2C(=O)N2CCN(C(=O)C(c3ccccc3)c3ccccc3)CC2)cc1,9.44%
17,CC(C)CCN1CCNC(=O)C1CC(=O)Nc1ccc(F)cc1 (stereo not shown),7.47%
18,C=CCc1ccc(OCC(O)CN2CCN(c3ccccc3OC)CC2)c(OC)c1.Cl (stereo not shown),8.86%
19,CCOc1ccc(OCCC(=O)OCC(=O)NCCc2ccc(S(N)(=O)=O)cc2)cc1,10.5%
20,O=C(c1ccc2ncsc2c1)N1CCN(c2nc3ccccc3s2)CC1,5.7%
21,CCOc1ccccc1NC(=O)NC1Cc2ccccc2C1,15.1%
22,CCCc1nc(SCc2ccc(Cl)cc2Cl)n[nH]1,15.7%

row,SMILES,"hERG current change (%, negative = inhibition) at 1uM"
1,CCOC(=O)c1nn(-c2ccc(F)cc2)c(=O)cc1OCC(=O)Nc1ccc(OCC)cc1,10.8%
2,O=C(NCCCC1CCCC1)C1CCC(=O)N(Cc2ccccc2F)C1 (stereo not shown),8.79%
3,CN1CCN(NC(=O)CN2C(=O)/C(=C/c3ccccc3F)SC2=S)CC1,5.92%
4,Cl.N[C@@H](Cc1ccc(O)cc1)c1nnc([C@H](CCC(=O)O)NC(=O)C2CCNCC2)o1,9.57%
5,Cc1ccc(CNCC(=O)Nc2ccc(C)cc2Br)cc1,4.73%
6,CC(=O)N1CCN(C(=S)c2cccc([N+](=O)[O-])c2)CC1,4.82%
7,O=C(NNC(=O)c1ccc2ccccc2c1O)Nc1ccc(F)cc1,5.44%
8,CC(C)Cc1nnc(NC(=O)CC(C)c2ccccc2)s1 (stereo not shown),10.4%
9,CC(Sc1nnc(NC2CCCCC2)s1)C(=O)Nc1ccc2c(c1)C(=O)c1ccccc1C2=O (stereo not shown),-2.03%
10,O=C(c1cccs1)N(Cc1ccco1)C1CCS(=O)(=O)C1 (stereo not shown),6.29%
11,COC(=O)C1=C(c2ccc(Cl)c(C(F)(F)F)c2)C[C@@H]2CC[C@H]1N2C(=O)NCCCOC(C)C,4.82%
12,COc1ccc(OCc2cc(C(=O)N3CCCCCC3)no2)c(Cl)c1,10.8%
13,CCCCNCCOCCOc1ccc(Cl)cc1Br.O=C(O)C(=O)O,-6.21%
14,O=C(CC12CC3CC(CC(C3)C1)C2)Nc1ccc(C(=O)O)cc1,2.94%
15,CC(C)Cn1c(CCC(N)=O)nnc1SC(C)C(=O)Nc1ccc2c(c1)OCO2 (stereo not shown),12.1%
16,Cc1cc(=O)oc(C)c1C(=O)N1CCc2c([nH]c3ccccc23)C1C(C)C (stereo not shown),6.72%
17,CCCN1CCC(=NNc2ccc(S(=O)(=O)N3CCOCC3)cc2[N+](=O)[O-])CC1,-1.34%
18,Cc1ccc(OCCNC(=O)c2ccc(C)cc2)cc1,2.27%
19,O=C(N/N=C/c1ccc(O)cc1)c1ccncc1,14.9%
20,COc1cc(C(=O)NCc2nnc(SCC(=O)NCc3ccccc3)o2)cc(OC)c1OC,17.1%
21,CC(=O)c1c(C)n(C)c2ccc(OC(=O)c3ccc([N+](=O)[O-])cc3)cc12,13.2%
22,CN(C)c1ccc(/C=C2\CCCCC2=O)cc1,4.18%
